Experimental data reported in PubChem BioAssay AID1963576 (National Center for Advancing Translational Sciences (NCATS), 2024).
In all, about 46,000 compounds went through this assay and about 60 (0.1%) were called active. Not shown: some 3% with an inconclusive outcome. Calls come from the whole dose curve; as a rule, active = well fitted inhibition curve with a large enough effect; inconclusive = small, poorly fitted or top-dose-only effect; inactive = no such curve, though single readings can be large or run the other way. This is one part of the list.

Assay: Primary qHTS assay for Inhibitors of ovarian cancer metastasis using an organotypic tumor microenvironment (TME) model.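 For Potency: count of GFP cancer cells still attached after washing and fixation.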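 For activity change, negative = inhibition: plate controls were DMSO wells for no effect and tomatine positive control wells for full effect.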 Note: nearly all actives have a fitted effect of over 65% in size.
Details: SKOV3ip1-GFP adhesion/invasion on 3D omental model, fluorescence; series mostly up to 45.8 µM; activity change, negative = inhibition: at the top concentration
Summary of the method: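 A 3D layer of primary human omental fibroblasts, mesothelial cells, fibronectin and collagen I, grown 48 hr, received SKOV3ip1-GFP cells in serum-free medium plus compounds at 0.36-46 umol/L. After 2 hr RT and 16 hr 37 C, fixed adherent GFP cells were counted; normalized to DMSO and tomatine.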
Potency is the fitted concentration of half-maximal effect.

Structure (SMILES) | outcome | activity change, negative = inhibition | Potency
COc1ccc(CNc2nc(-c3ccc(Cl)cc3)nn2C(=O)c2ccccc2)cc1 | inactive | – | –
CC(C)c1ccc(NC(=O)C2Cc3ccccc3N2C(=O)c2ccccc2)cc1 (stereo unspecified) | – | inactive: -0.926% | –
Cc1nc(-c2ccc(S(=O)(=O)N(C)Cc3ccccc3)cc2)co1 | – | inactive: -1.08% | –
Cc1cc(C)cc(N2C(=O)CS(=O)(=O)C23C(=O)N(C)c2ccccc23)c1 (stereo unspecified) | – | inactive: -9.2% | –
Cc1ccc(-n2ncc(C(=O)N3CCN(c4ncccn4)CC3)c2C2CCN(C(=O)OC(C)(C)C)CC2)cc1 | – | inactive: -1.55% | –
CCOc1ccc(-n2cc(-c3ccccc3)c3c(NCc4ccc(F)cc4)ncnc32)cc1 | – | inactive: 6.44% | –
CCCN(CCC)S(=O)(=O)c1ccc(N2CCCCS2(=O)=O)cc1 | – | inactive: 2.3% | –
CCOC(=O)Cn1nc(C)c(NC(=O)COc2ccc(C)c(C)c2)c1C | inactive | – | –
COc1ccc(-c2cc(C(F)(F)F)nc(SCCC(=O)Nc3ccc(O)cc3)n2)cc1 | inactive | – | –
CCn1c2ccccc2c2nnc(N3CCN(c4ccc(OC)cc4)CC3)nc21 | – | inactive: -4.59% | –
Cc1ccc(NC(=O)C2CCN(c3nc4ccccc4nc3C(F)(F)F)CC2)cc1C | inactive | – | –
CCN(CC)C(=O)CSc1cn(CC(=O)N2CCCCCC2)c2ccccc12 | – | inactive: -0.245% | –
Cc1ccc(C)c(Nc2ncnc3c2cnn3-c2ccc(F)cc2)c1 | – | inactive: -6.15% | –
COc1ccc(C)cc1NS(=O)(=O)c1ccc(-c2cnc(C3CC3)o2)cc1 | inactive | – | –
Cc1nnc(N2CCC(C(=O)N3CCCCC3)CC2)c2nn(-c3ccccc3)c(C)c12 | – | inactive: -9.01% | –
COc1ccc(CNS(=O)(=O)c2ccc3c(c2)NC(=O)C(C)C(=O)N3)cc1 (stereo unspecified) | – | inactive: -0.525% | –
Cc1ccc(C)c(S(=O)(=O)Nc2ccc3c(c2)CCCN3C(=O)c2cccs2)c1 | – | inactive: -4.31% | –
Cc1ccc(C)c(NC(=O)CSc2ncc3c(n2)-c2ccccc2N(Cc2ccccc2C)S3(=O)=O)c1 | – | inactive: 6.91% | –
O=C(Cn1cc(S(=O)(=O)c2ccc(Cl)cc2)c(=O)c2ccccc21)Nc1ccc2c(c1)OCO2 | inactive | – | –
COc1ccc(/C=C/c2nc(C#N)c(N3CCCCCC3)o2)cc1OC | – | inactive: 6.87% | –
O=S(=O)(N=Cc1c(O)ccc2ccccc12)c1cccs1 | – | inactive: 23.3% | –
Fc1ccc([C@@H]2Nc3ccccc3[C@@H]3C=CC[C@@H]32)cc1 | – | inactive: -2.43% | –
COc1ccc(CCN2C(=O)N(c3ccc(F)cc3)C(=O)C2CC(=O)Nc2ccccc2)cc1OC (stereo unspecified) | inactive | – | –
CCCN(C(=O)c1cc2c(=O)n(CC)c3ccccc3c2s1)c1ccccc1F | inactive | – | –

Structure (SMILES) | outcome | activity change, negative = inhibition | Potency
CCCc1c(C(=O)OCC)nnc2c(-c3ccccc3)c(C)nn12 | inactive | – | –
COc1cc(NC(=O)Cn2c(=O)n(Cc3ccccc3Cl)c(=O)c3cc(OC)c(OC)cc32)cc(OC)c1 | inactive | – | –
COc1ccc(CNc2n[nH]c(-c3ccco3)n2)cc1OC | – | inactive: 4.61% | –
O=C(NCCc1ccccc1)c1cc(-c2cccc(Cl)c2)on1 | – | inactive: -2.82% | –
CCc1ccc(Nc2ncnc3sc4c(c23)CCCC4)cc1 | – | inactive: -27.6% | –
CCc1ccc(NC(=O)c2cc(S(=O)(=O)N3CCCCC3)c[nH]2)cc1 | – | inactive: -1.02% | –
COc1cc(NC(=O)c2cc3nc(-c4ccc(C)cc4)cc(C(F)(F)F)n3n2)cc(OC)c1OC | – | inactive: -3.04% | –
COc1ccc(C2c3c(n(C)c4ccccc34)C(=O)N2CC(=O)Nc2ccccc2Cl)cc1 (stereo unspecified) | – | inactive: 9.98% | –
O=C(c1ccc(Nc2nc3ccccc3n3nnnc23)cc1)N1CCN(c2ccc(F)cc2)CC1 | – | inactive: -5.8% | –
O=C(Nc1cc(-c2nc3cc(Cl)ccc3o2)ccc1Cl)c1cccc2ccccc12 | – | inactive: 5.08% | –
COc1ccc(CCNC(=O)c2c[nH]n3c(=O)c(Cc4ccccc4Cl)c(C)nc23)cc1OC | – | inactive: 11.9% | –
CCn1c2c(c(=O)n3ncc(C(=O)Nc4ccc(OC(F)(F)F)cc4)c13)CN(Cc1ccc(OC)cc1)CC2 | – | inactive: -0.276% | –
Fc1ccc(CNc2ncnc3ccc(F)cc23)cc1 | – | inactive: 2.01% | –
COc1ccc(CCNC(=O)c2cnc3sc(N4CCOCC4)nn3c2=O)cc1OC | – | inactive: -6.57% | –
CC(=O)c1cccc(NC(=O)Cn2c(=O)oc3cc(S(=O)(=O)NCc4ccccc4)ccc32)c1 | – | inactive: 18.2% | –
Cc1ccc(CNC(=O)c2nnn(Cc3ccc(F)cc3)c2N)cc1 | – | inactive: 0.347% | –
COc1ccc(OCc2ccc(-c3nc(C#N)c(N4CCC(C(N)=O)CC4)o3)o2)cc1 | – | inactive: -0.551% | –
O=S(=O)(Nc1ccc(F)cc1F)c1ccc(Br)s1 | – | inactive: -2.12% | –
O=C(NCc1cccs1)c1ccc(CSc2nc3cccnc3n2Cc2ccc(F)cc2)cc1 | – | inactive: 8.57% | –
CC1CCN(c2ccc(-c3cccc(NS(=O)(=O)c4cccs4)c3)nn2)CC1 | inactive | – | –
Cc1ccc2c(c1)cc1c(=O)n(CC(=O)NC(C)CCc3ccccc3)nc(C)n12 (stereo unspecified) | inactive | – | –
CC1CCn2c(nc3cc(C(=O)NCc4ccc(F)cc4)ccc32)C1 (stereo unspecified) | – | inactive: -6.86% | –
Cc1cc(C)cc(NC(=O)C2CCN(C(=O)c3cnn(-c4ccccc4)c3-n3cccc3)CC2)c1 | inactive | – | –
CCOc1nc(NC(=O)NS(=O)(=O)Oc2cccc(Cl)c2)nc(-c2ccccc2)n1 | – | inactive: -13.7% | –

Structure (SMILES) | outcome | activity change, negative = inhibition | Potency
COc1ccccc1CNc1ccc(-c2nc(-c3ccccc3C)no2)cc1[N+](=O)[O-] | – | inactive: -10.8% | –
CCc1ccccc1NC(=O)CSc1nc2n[nH]c(C)c2c(=N)n1-c1cccc(C)c1 | – | inactive: 3.2% | –
COc1ccc(-c2nn(-c3ccc(F)cc3)c3c2cnc2cc4c(cc23)OCO4)cc1 | – | inactive: -4.67% | –
Cn1c2c(c(=O)n(C)c1=O)C(c1ccccc1[N+](=O)[O-])CC(=O)N2 (stereo unspecified) | – | inactive: -18.7% | –
CCCCC(=O)Nc1nnc(SCc2cc(=O)n3cc(C)ccc3n2)s1 | inactive | – | –
CCOC(=O)c1nn2c(C(F)(F)F)cc(-c3ccc(C)cc3)nc2c1Cl | – | inactive: -0.336% | –
O=C(Nc1ccc(F)c(F)c1)c1cc(S(=O)(=O)NCc2ccc3c(c2)OCO3)ccc1F | inactive | – | –
Cc1ccn2c(Nc3ccc4c(c3)OCO4)c(-c3ccc(Cl)cc3)nc2c1 | – | inactive: 0.109% | –
COc1cccc(CNC(=O)CN2CCCN(Cc3ccccc3)S2(=O)=O)c1 | inactive | – | –
CC(C)(C)NCC(O)c1ccc(O)c(CO)c1 (stereo unspecified) | – | inactive: -7.1% | –
COc1ccc(C2=NC3(CCCCCC3)N(CC(=O)Nc3cccc(Cl)c3)C2=O)cc1 | – | inactive: -5.47% | –
COc1ccc(-c2c(C#N)c(SCC(=O)Nc3ccc(C)cc3)nc(C)c2C(=O)Nc2ccccc2)cc1 | – | inactive: 5.92% | –
Cc1ccc(CNC(=O)CSc2nc(=O)n(Cc3ccco3)c3c2CCC3)cc1 | – | inactive: 2.23% | –
CCOc1ccc(-c2nnc(SCC(=O)NC(C)CC)nc2-c2ccc(OCC)c(OC)c2)cc1OC (stereo unspecified) | – | inactive: 4.03% | –
CCOc1ccc(-n2nc3ccc(NC(=O)c4cccc(F)c4)cc3n2)cc1 | – | inactive: 0.873% | –
COc1ccc(Cl)cc1S(=O)(=O)N1CCN(CC(=O)Nc2ccccc2C(F)(F)F)CC1 | – | inactive: -7.48% | –
CCSc1nc2c([nH]c3ccccc32)c(=O)n1-c1cccc(OC)c1 | inactive | – | –
COc1cccc(NC(=O)Cn2c(=O)ccc3cc(S(=O)(=O)N4CCC(C)CC4)ccc32)c1 | – | inactive: 14.2% | –
CCCCc1nn2c(=O)cc(COC(=O)c3ccco3)nc2s1 | – | inactive: 88.5% | –
COc1ccc(-c2nc(CCNC(=O)c3c(F)cccc3Cl)cs2)cc1 | inactive | – | –
CC1CCN(C(=O)Cn2cc(SCC(=O)Nc3ccccc3C(F)(F)F)c3ccccc32)CC1 | – | inactive: -4.78% | –
COc1ccc(-c2nc3ccccc3o2)cc1NC(=O)c1ccc(-c2ccc(Br)cc2)o1 | – | inactive: 3.45% | –
CC(=O)Nc1nonc1-c1nnc(SCC(=O)Nc2cccc(C)c2C)n1-c1ccccc1 | – | inactive: -9.18% | –
COc1cc(C(=O)Nc2cccc(OCc3cc(=O)n4cc(C)sc4n3)c2)cc(OC)c1OC | – | inactive: -24.9% | –

Structure (SMILES) | outcome | activity change, negative = inhibition | Potency
Cc1nn(C)c(C)c1CCNC(=O)Nc1cccc(Cl)c1C | – | inactive: 10.5% | –
COc1ccc(Cn2cc(C(=O)c3ccc(F)cc3)c(=O)c3cc4c(cc32)OCCO4)cc1 | – | inactive: -14.3% | –
CCOc1ccc(-n2c(=O)c3c(C)c(C)sc3n(CC(=O)Nc3ccc(CC)cc3)c2=O)cc1 | – | inactive: -4.78% | –
CSc1ccc(CCNC(=O)Cn2ncn3c(cc4ccccc43)c2=O)cc1 | – | inactive: 3.49% | –
CCN1C(=O)N(c2ccc(C(C)=O)cc2)S(=O)(=O)c2ccccc21 | inactive | – | –
Cc1ccc(CN2C(=O)C(=O)c3cc(Br)cc(C)c32)cc1 | – | – | active: 12.6 µM
CCC(C(=O)Nc1ccccc1)n1nc(-c2cc(C)ccc2C)ccc1=O (stereo unspecified) | inactive | – | –
Cc1cccc(NC(=O)C2CCCN(S(=O)(=O)c3c(C)n[nH]c3C)C2)c1 (stereo unspecified) | inactive | – | –
COc1ccc(Br)cc1CNC(=O)c1cnc2sc(N3CCCCCC3)nn2c1=O | – | inactive: -3.19% | –
CCN(C(=O)c1cc2c(=O)n(CC)c3ccccc3c2s1)c1cccc(C(F)(F)F)c1 | inactive | – | –
COc1cccc(-n2c(-c3ccco3)nc3c(cnn3-c3ccc(Cl)cc3)c2=O)c1 | – | inactive: 14.8% | –
CCn1c(C)c(C)c2cc(C(=O)N3CCN(c4cccc(C)c4C)CC3)ccc21 | – | inactive: -15.6% | –
COc1cc(CN(C(=O)COc2ccccc2Cl)c2ccccn2)cc(OC)c1OC | – | inactive: -0.981% | –
COc1cccc(N2C(=O)CSC23C(=O)N(CC(=O)Nc2cccc(Cl)c2)c2ccccc23)c1 (stereo unspecified) | inactive | – | –
O=C(CSc1cn(CCNC(=O)c2ccccc2F)c2ccccc12)Nc1ccc(F)cc1 | inactive | – | –
CN1CC(=O)N2C(Cc3c([nH]c4ccccc34)[C@H]2c2ccc3c(c2)OCO3)C1=O (stereo partly specified) | – | inactive: -2.58% | –
CCC(CC)C(=O)N1CCc2cc(OC)c(OC)cc2C1COc1ccc(C(=O)OC)cc1 (stereo unspecified) | inactive | – | –
COc1ccc(C)cc1NC(=O)CSc1nc(=O)[nH]c2c1CCCC2 | inactive | – | –
CCC(=O)Nc1ccc2nc(SCc3ccccc3)sc2c1 | – | inactive: 1.02% | –
O=S(=O)(c1ccc(Cl)cc1)c1nnn2c1nc(NCc1cccs1)c1sccc12 | – | inactive: -4.65% | –
CCOc1ccc(-n2c(=O)c3c4c(sc3n(CC(=O)NC(C)CC)c2=O)CCC4)cc1 (stereo unspecified) | – | inactive: 3.23% | –
CN(C)S(=O)(=O)N(CC(=O)NCCSCc1cccc(Cl)c1)c1ccccc1 | – | inactive: 7.96% | –
CCOC(=O)c1ccc(N2C(=O)c3n[nH]c(-c4cccs4)c3C2c2cccc(OC)c2)cc1 (stereo unspecified) | – | inactive: 1.38% | –
COc1ccc(CC(=O)Nc2cc(-c3nc4cccnc4s3)ccc2C)cc1 | – | inactive: 12.6% | –
